Results reported in PubChem BioAssay AID1508623 (National Center for Advancing Translational Sciences (NCATS), 2021).
The campaign covered roughly 48,000 compounds. About 450 (0.94%) were called active. Inconclusive means that the source gave no clear call. Such entries were picked first, then a sample of the others. Calls come from the whole dose curve; as a rule, active = well fitted inhibition curve with a large enough effect; inconclusive = small, poorly fitted or top-dose-only effect; inactive = no such curve, though single readings can be large or run the other way. Potencies of inconclusive entries are doubtful fits and often do not repeat.

experiment: Primary qHTS for Identification of Small Molecule Inhibitors of Huntingtin Promoter Activity; details: HEK293 HTT promoter firefly luciferase reporter (activity 0% = vehicle and -100% = no light), 24 h; activity change, negative = inhibition: at 57.5 µM (top of the series); note: nearly all actives have a fitted effect of over 50% in size
In short: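 Firefly luciferase signal from promoter-reporter HEK293 cells was scaled between vehicle (0%) and zero RLU (-100%). Compounds were tested at final concentrations of up to 57.5 uM over 24 h at 37 degrees C. PTC124 at 50 uM final served as control inhibitor.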
Potency is the fitted concentration of half-maximal effect; tags give direction and shape of the fitted curve.

Row | Compound | Potency | activity change, negative = inhibition
1 | Cc1ccc(C(c2ccccc2)c2c(C)[nH]c3ccccc23)s1 (stereo not drawn) | inconclusive: 39.8 µM [inhibitor, single point] | 
2 | Cc1ccc(-c2cc(NC(=O)COc3ccc(Cl)c(C)c3)on2)cc1 |  | inactive: 1.43%
3 | Cc1cc(C)c(Cn2c3ccccc3c3cnn(CC(=O)NCc4ccccn4)c(=O)c32)c(C)c1 | inconclusive: 28.2 µM [inhibitor, partial curve, poor fit] | 
4 | COc1ccccc1CCNC(=O)C(=O)NCC(c1cccs1)S(=O)(=O)c1ccccc1 (stereo not drawn) | inconclusive: 35.5 µM [inhibitor, single point] | 
5 | CC1CCN(c2oc(-c3ccc(COc4ccccc4)o3)nc2C#N)CC1 | inconclusive: 39.8 µM [inhibitor, single point] | 
6 | CCc1ccc(-n2c(N3CCN(c4cccc(Cl)c4)CC3)nc3ccccc3c2=O)cc1 | inconclusive: 17.8 µM [inhibitor, single point] | 
7 | Cc1ccc(-n2c(SCC(=O)NCc3ccccc3)nc3n[nH]c(C)c3c2=N)cc1Cl | inconclusive: 14.1 µM [inhibitor, partial curve, poor fit] | 
8 | CCOC(=O)c1cc2c(=O)n3ccccc3nc2n(CCOC)c1=NC(=O)C(C)(C)Oc1ccc(Cl)cc1 |  | inactive: -6.79%
9 | CCCCN(C)CCCNC(=O)Cn1ncc2c3ccccc3n(Cc3ccccc3F)c2c1=O | inconclusive: 25.1 µM [inhibitor, single point] | 
10 | COc1ccc(NC(=O)Cn2c(=O)oc3cc(S(=O)(=O)NCc4ccccc4)ccc32)c(OC)c1 | inconclusive: 15.8 µM [inhibitor, partial curve] | 
11 | CCOc1ccc(CN2C(=O)c3ccccc3Sc3ccc(C(=O)NC)cc32)cc1 | inconclusive: 12.6 µM [inhibitor, single point] | 
12 | O=C(NCCc1ccccc1)c1ccc2c(c1)N(Cc1ccc(F)cc1Cl)C(=O)CS2 |  | inactive: -13.8%
13 | COc1ccc(S(=O)(=O)c2c(C(=O)c3ccc(C)c(C)c3)cnc3ccc(C)cc23)cc1 | inconclusive: 35.5 µM [inhibitor, partial curve, poor fit] | 
14 | CN(c1nnc(NC(=O)Nc2ccccc2C(F)(F)F)s1)C1CCCCC1 |  | inactive: -13.3%
15 | Cc1ccc(NC(=O)CN2C(=O)c3cccnc3Sc3ccccc32)c(Br)c1 | inconclusive: 31.6 µM [inhibitor, single point] | 
16 | CC1CCN(S(=O)(=O)c2cc(C(=O)N3CCN(c4cccc(Cl)c4)CC3)n(C)c2)CC1 | inconclusive: 35.5 µM [inhibitor, partial curve, poor fit] | 
17 | COc1ccc(N(CC(=O)N2CCc3ccccc3C2)S(=O)(=O)c2ccccc2)cc1 |  | inactive: -17.7% [at 11.5 µM]
18 | CCOC(=O)c1nnn(C(CC)C(=O)Nc2ccc(F)cc2)c1C(=O)OCC (stereo not drawn) | inconclusive: 22.4 µM [inhibitor, single point] | 
19 | Cc1ccc(-n2nc(CO)c(C(=O)NCCC(C)C)n2)cc1C | inconclusive: 31.6 µM [inhibitor, single point] | 
20 | CCc1cccc(NC(=O)CSc2nnc(-c3cc4occc4n3C)n2-c2ccccc2C)c1 | inconclusive: 39.8 µM [inhibitor, single point] | 

Row | Compound | Potency | activity change, negative = inhibition
21 | O=C(NCc1ccncc1)C12C[C@H]3C[C@@H](C1)CC(c1ccc(Cl)cc1)(C3)C2 |  | inactive: -2.66%
22 | CCCN(C(=O)CCc1nc(-c2ccc(C)cc2)no1)c1ccc(OCC)cc1 | inconclusive: 31.6 µM [inhibitor, partial curve, poor fit] | 
23 | CCCSc1ncc(Cl)c(C(=O)N(Cc2ccccc2)c2ccc(OC)cc2)n1 | inconclusive: 35.5 µM [inhibitor, partial curve, poor fit] | 
24 | CNC(=O)c1ccc2cc(C3(O)CCn4cncc43)ccc2c1 (stereo not drawn) |  | inactive: 9.91%
25 | Cn1ccc2c(OCC(=O)Nc3ccc(OC(F)(F)F)cc3)cccc2c1=O | active: 20 µM | 
26 | Cc1cc(C(=O)N2CCN(c3cccc(Cl)c3)CC2)c2c(C)nn(-c3ccccc3Cl)c2n1 | inconclusive: 31.6 µM [inhibitor, partial curve, poor fit] | 
27 | COc1ccc(S(=O)(=O)c2c(Nc3ccc(C)cc3C)sc(C(=O)c3ccc(F)cc3)c2N)cc1 | inconclusive: 8.91 µM [inhibitor, full curve, poor fit] | 
28 | O=C(CSc1nc2c([nH]c3ccccc32)c(=O)n1-c1cccc(Cl)c1)c1ccccc1 |  | inactive: -18.2%
29 | CCc1ccccc1S(=O)(=O)Cc1ccc(C(=O)NCCc2ccc(C)cc2)o1 | inconclusive: 39.8 µM [inhibitor, single point] | 
30 | Cc1cc2c(cc1NS(=O)(=O)c1ccc(NC(=O)CC(C)C)cc1)n(C)c(=O)c(=O)n2C | inconclusive: 12.6 µM [inhibitor, partial curve, poor fit] | 
31 | Cc1cnc(Nc2ccc(CN3CCOCC3)cc2)nc1Nc1cccc(S(=O)(=O)NC(C)(C)C)c1 |  | inactive: -22.2%
32 | CC(=O)N1CCCc2cc(S(=O)(=O)NCc3ccccc3Cl)ccc21 | inconclusive: 25.1 µM [inhibitor, single point] | 
33 | Cc1ccc(C)c(NC(=O)c2cc(S(=O)(=O)N3CCN(c4cccc(Cl)c4)CC3)ccc2F)c1 | inconclusive: 39.8 µM [inhibitor, single point] | 
34 | CCN(Cc1ccccc1)C(=O)C1CCC(CNS(=O)(=O)c2ccc3c(c2)CCCC(=O)N3)CC1 (stereo not drawn) | inconclusive: 11.2 µM [inhibitor, partial curve, poor fit] | 
35 | CCOc1ccc(S(=O)(=O)NCc2ccc3c(c2)CCN3C(=O)c2ccc(C)cc2)cc1 | inconclusive: 15.8 µM [inhibitor, partial curve, poor fit] | 
36 | O=C(COc1ccc(Cl)cc1)Nc1ccc2nc(SCC(=O)N3CCOCC3)sc2c1 | inconclusive: 35.5 µM [inhibitor, single point] | 
37 | Cc1ccc(Cl)cc1NC(=O)c1nnn(Cc2ccccc2)c1N | inconclusive: 31.6 µM [inhibitor, partial curve, poor fit] | 
38 | CCN(CC)CCNC(=O)c1ccc(-c2nc(CN3CCc4ccccc43)c(C)o2)cc1 |  | inactive: -27.5%
39 | O=C(Nc1ccc(C(F)(F)F)cc1)c1cc(S(=O)(=O)N2CCCc3ccccc32)ccc1F | inconclusive: 22.4 µM [inhibitor, partial curve, poor fit] | 
40 | O=C(/C=C/c1ccccc1)Nc1nc2n(n1)C(c1ccc(Cl)cc1)C=C(c1ccccc1)N2 (stereo not drawn) | inconclusive: 31.6 µM [inhibitor, partial curve, poor fit] | 

Row | Compound | Potency | activity change, negative = inhibition
41 | Clc1ccc(CN2CCc3nc(N4CCN(c5ccccn5)CC4)ncc3C2)cc1 | inconclusive: 5.62 µM [inhibitor, full curve] | 
42 | CCOC(=O)c1cc(-c2ccccc2)n(CCCC(=O)Nc2cccc(C)c2)c1C | inconclusive: 25.1 µM [inhibitor, single point] | 
43 | COc1ccc(CCNC(=O)C(=O)NCC(c2cccs2)S(=O)(=O)c2cccs2)cc1 (stereo not drawn) | inconclusive: 35.5 µM [inhibitor, partial curve, poor fit] | 
44 | CCOc1cccc(C(=O)Nc2ccc3oc(-c4ccncc4)nc3c2)c1 | inconclusive: 28.2 µM [inhibitor, single point] | 
45 | COc1ccc(-c2cc(OC(=O)c3ccccc3Cl)c3c(C)oc(C)c3c(=O)c2)cc1OC | inconclusive: 25.1 µM [inhibitor, single point] | 
46 | COc1cc(OC)c(NS(=O)(=O)c2c(C)nc3sc(C)cn3c2=O)cc1Cl | inconclusive: 25.1 µM [inhibitor, partial curve] | 
47 | Cc1ccc(-c2noc(-c3cccnc3NCc3ccco3)n2)cc1 |  | inactive: 61.7%
48 | CCCSc1oc(-c2cccs2)nc1S(=O)(=O)c1ccc(C)cc1 | inconclusive: 25.1 µM [inhibitor, partial curve, poor fit] | 
49 | O=C(Nc1cccc(C(=O)OCc2cc(=O)n3c4c(sc3n2)CCCC4)c1)c1ccc(Cl)cc1 | inconclusive: 39.8 µM [inhibitor, single point] | 
50 | COc1ccc(NC(=O)Cn2c(=O)n(CCCCCC(=O)NCc3ccc4c(c3)OCO4)c(=O)c3sccc32)cc1Cl | inconclusive: 39.8 µM [inhibitor, single point] | 
51 | CCN(CC)C(=O)c1sc2c(c1C)c(=O)n(Cc1ccccc1)c(=O)n2Cc1cc(C)ccc1C | inconclusive: 31.6 µM [inhibitor, partial curve, poor fit] | 
52 | CCOC(=O)c1[nH]c2c(c1Cc1ccccc1OC)C(=O)CC(c1ccccc1)C2 (stereo not drawn) | inconclusive: 35.5 µM [inhibitor, partial curve, poor fit] | 
53 | CCc1ccc(NC(=O)C(=O)NCC(c2cccnc2)N2CCc3ccccc3C2)cc1 (stereo not drawn) | inconclusive: 39.8 µM [inhibitor, single point] | 
54 | CCc1ccc(NC(=O)CSc2nc3c(c(=O)[nH]2)CN(Cc2ccc(C)cc2)CC3)cc1 | inconclusive: 39.8 µM [inhibitor, partial curve, poor fit] | 
55 | CCN(CC)S(=O)(=O)c1ccc2c(c1)c(=O)c(C(=O)NCc1ccccc1Cl)cn2C | inconclusive: 39.8 µM [inhibitor, single point] | 
56 | O=C(CSc1c2c(nc3cc(Cl)ccc13)CCCC2)N1CCN(c2ccccc2)CC1 | inconclusive: 39.8 µM [inhibitor, single point] | 
57 | Cc1ccc(S(=O)(=O)Cc2nc(-c3ccc(C(=O)NCc4ccccc4C)cc3)oc2C)cc1 | inconclusive: 25.1 µM [inhibitor, partial curve] | 
58 | CC(=O)c1ccc(NC(=O)C2=CC(c3ccc(C)cc3)=NS(=O)(=O)N2C)cc1 | inconclusive: 11.2 µM [inhibitor, partial curve] | 
